# Experimental data reported in ChEMBL document CHEMBL5606458, “ASAP - ZIKV NS2B-NS3 protease fluorescence single point” (2024).
# About 160 (5.9%) of roughly 2,700 compounds showed an effect of 50% or more. The list shows a part of the results.
# Molecular target: Nonstructural protein 3 (Zika virus) (UniProt A0A024AXB9)
# [1] = PRVABC59, Concentration 50.0 uM, Number of replicates 1.0
# [2] = PRVABC59, Concentration 15.0 uM, Number of replicates 1.0
# [3] = PRVABC59, Concentration 10.0 uM, Number of replicates 1.0
# UniProt A0A024AXB9, sequence (A0A024AXB9 as listed by the source): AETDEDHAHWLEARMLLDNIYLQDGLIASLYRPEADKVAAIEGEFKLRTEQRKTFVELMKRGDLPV
smiles,measurement,setting,value
Cc1nc(Br)ccc1NC(=O)C1CCN(c2ccc(C=O)cc2)CC1,inhibition,[1],23.2%
O=C(Nc1ccc2ccccc2c1O)c1cc(Cl)ccc1NS(=O)(=O)c1ccc(Oc2ccccc2Cl)cc1,inhibition,[2],14%
COC(=O)c1ccc(F)c(Cn2cc(C3CCNCC3)c(C)n2)c1,inhibition,"PRVABC59, Concentration 49.5 uM, Number of replicates 2.0, Standard deviation 1.8234550992150553 %",1.56%
same,inhibition,"PRVABC59, Concentration 99.01 uM, Number of replicates 2.0, Standard deviation 0.947622366220452 %",0.074%
same,inhibition,"PRVABC59, Concentration 198.0 uM, Number of replicates 2.0, Standard deviation 0.08409628118336304 %",3.65%
CSCC[C@H](NC(=O)OC(C)(C)C)C(=O)N1CCC[C@H]1C(=O)Nc1cccc2ncccc12,inhibition,"PRVABC59, Concentration 49.5 uM, Number of replicates 2.0, Standard deviation 3.7582844678787546 %",-1.14%
same,inhibition,"PRVABC59, Concentration 99.01 uM, Number of replicates 2.0, Standard deviation 4.1601644464989835 %",-0.944%
same,inhibition,"PRVABC59, Concentration 198.0 uM, Number of replicates 2.0, Standard deviation 0.9895537178949099 %",-3.24%
O=C(N[C@H]1Cc2ccc(Br)cc2C1)c1cc(Cl)ccc1NS(=O)(=O)c1ccc(Oc2ccccc2Cl)cc1,inhibition,[2],18.4%
COc1cccc(F)c1CNC(=O)c1cc(Cl)ccc1NS(=O)(=O)c1ccc(Oc2ccccc2Cl)cc1,inhibition,[2],30.2%
O=C(Nc1ccccc1Oc1ccccc1)c1cc(Cl)ccc1NS(=O)(=O)c1ccc(Oc2ccccc2Cl)cc1,inhibition,[2],54.2%
C[C@@H](C(=O)c1cccc(Cl)c1)N(C(=O)C1CCN(c2ccc(C=O)cc2)CC1)C(C)(C)C,inhibition,[1],18.1%
CN1CCN(c2ccc(CNC(=O)C3CCN(c4ccc(C=O)cc4)CC3)cc2)CC1,inhibition,[3],26.8%
CC(C)N(C[C@H](O)COc1cccc2ccccc12)C(=O)c1cc(Cl)ccc1NS(=O)(=O)c1ccc(Oc2ccccc2Cl)cc1,inhibition,[2],15.3%
O=Cc1ccc(N2CCC(C(=O)Nc3ccc([N+](=O)[O-])cc3)CC2)cc1,inhibition,[1],43%
CCc1noc(Cn2cc(C3CCNCC3)c(C)n2)n1,inhibition,"PRVABC59, Concentration 49.5 uM, Number of replicates 2.0, Standard deviation 1.3112558078378338 %",-2.04%
same,inhibition,"PRVABC59, Concentration 99.01 uM, Number of replicates 2.0, Standard deviation 0.11511703603695722 %",-1.43%
same,inhibition,"PRVABC59, Concentration 198.0 uM, Number of replicates 2.0, Standard deviation 0.57558549628615 %",0.495%
Cc1cc(CO)c2cccc(C[C@H](NC(=O)c3ccno3)C(=O)O)c2n1,inhibition,"PRVABC59, Concentration 49.95 uM, Number of replicates 2.0, Standard deviation 1.3649353828004607 %",-0.405%
same,inhibition,"PRVABC59, Concentration 99.9 uM, Number of replicates 2.0, Standard deviation 2.6244896515699807 %",4.79%
O=Cc1ccc(N2CCC(C(=O)N[C@H](CO)CC3CCCCC3)CC2)cc1,inhibition,[1],21.1%
CN(C)C1(CNC(=O)c2cc(Cl)ccc2NS(=O)(=O)c2ccc(Oc3ccccc3Cl)cc2)CCOCC1,inhibition,[2],-7.12%
Cc1nc(NC(=O)C2CCN(c3ccc(C=O)cc3)CC2)ccc1Br,inhibition,[1],20.8%
O=Cc1ccc(N2CCC(C(=O)Nc3ncc(Br)c(C(F)(F)F)n3)CC2)cc1,inhibition,[1],22.3%
O=C(N[C@H]1CC(=O)N(Cc2ccccc2)C1)c1cc(Cl)ccc1NS(=O)(=O)c1ccc(Oc2ccccc2Cl)cc1,inhibition,[2],22%
CC(=O)N[C@@H](CCCCN)C(=O)Nc1cccc2c(Cl)cc(C)nc12,inhibition,"PRVABC59, Concentration 49.95 uM, Number of replicates 2.0, Standard deviation 3.802363243631691 %",19.9%
same,inhibition,"PRVABC59, Concentration 99.9 uM, Number of replicates 2.0, Standard deviation 2.8723353743500515 %",37.2%
CC1(C)OB(c2ccc(Cl)cc2CNC2CCCCC2)OC1(C)C,inhibition,"PRVABC59, Concentration 500.0 uM, Number of replicates 2.0, Standard deviation 1.9574328288872134 %",5.92%
C[C@H](NC(=O)C1CCN(c2ccc(C=O)cc2)CC1)c1ccc([N+](=O)[O-])cc1,inhibition,[3],26%
O=Cc1ccc(N2CCC(C(=O)Nc3ccc(F)cc3I)CC2)cc1,inhibition,[1],22.9%
Cc1cc(CO)c2cccc(Cc3cccc(NC(=O)[C@@H]4C[C@@H](O)CN4)c3)c2n1,inhibition,"PRVABC59, Concentration 49.95 uM, Number of replicates 2.0, Standard deviation 2.4532169975140787 %",5.83%
same,inhibition,"PRVABC59, Concentration 99.9 uM, Number of replicates 2.0, Standard deviation 0.6616569684515518 %",18%
COc1ccc(CN(C(=O)C2CCN(c3ccc(C=O)cc3)CC2)C2CC2)cc1,inhibition,[1],21%
c1ccc2cc(CN3CCC[C@H](c4cc5ccccc5[nH]4)C3)ncc2c1,inhibition,"PRVABC59, Concentration 49.5 uM, Number of replicates 2.0, Standard deviation 1.706072311822425 %",3.03%
same,inhibition,"PRVABC59, Concentration 99.01 uM, Number of replicates 2.0, Standard deviation 0.7056744626867533 %",6.14%
same,inhibition,"PRVABC59, Concentration 198.0 uM, Number of replicates 2.0, Standard deviation 1.1747412382803808 %",11.4%
Cc1ccc2nc(NC(=O)C3CCN(c4ccc(C=O)cc4)CC3)sc2c1,inhibition,[1],24.4%
O=C(Nc1cc(Cl)cnc1Br)c1cc(Cl)ccc1NS(=O)(=O)c1ccc(Oc2ccccc2Cl)cc1,inhibition,[2],21.9%
O=C(c1cc(Cl)ccc1NS(=O)(=O)c1ccc(Oc2ccccc2Cl)cc1)N(CC1CC1)C1CCCCC1,inhibition,[2],19.7%
O=Cc1ccc(N2CCC(C(=O)NCc3ccccc3)CC2)cc1,inhibition,[3],26.5%
O=C(Nc1ccc(Oc2ccccc2Cl)cc1)c1cc(Cl)ccc1NS(=O)(=O)c1ccc(Oc2ccccc2Cl)cc1,inhibition,[2],19.7%
c1ccc2c([C@H]3CCN(Cc4ncco4)C3)c[nH]c2c1,inhibition,"PRVABC59, Concentration 49.5 uM, Number of replicates 2.0, Standard deviation 0.9858690560056252 %",0.77%
same,inhibition,"PRVABC59, Concentration 99.01 uM, Number of replicates 2.0, Standard deviation 4.236123435640349 %",0.726%
same,inhibition,"PRVABC59, Concentration 198.0 uM, Number of replicates 2.0, Standard deviation 2.0568340637577314 %",0.826%
O=Cc1ccc(N2CCC(C(=O)N(C3CCCCC3)C3CCCCC3)CC2)cc1,inhibition,[1],20.8%
Cc1cc(CO)c2cccc(NC(=O)C3CNC3)c2n1,inhibition,"PRVABC59, Concentration 99.9 uM, Number of replicates 2.0, Standard deviation 0.20878200053144555 %",-2.49%
CCn1nccc1CN1CCC(c2c[nH]c3cccnc23)CC1,inhibition,"PRVABC59, Concentration 49.5 uM, Number of replicates 2.0, Standard deviation 0.03120502087528381 %",-2.09%
same,inhibition,"PRVABC59, Concentration 99.01 uM, Number of replicates 2.0, Standard deviation 0.6194206000344206 %",-2.07%
same,inhibition,"PRVABC59, Concentration 198.0 uM, Number of replicates 2.0, Standard deviation 0.7582830862287184 %",-1.58%
Cc1cc(C)cc(OCCN(C)C(=O)C2CCN(c3ccc(C=O)cc3)CC2)c1,inhibition,[1],23.3%
Cn1cc(CNC(=O)c2ccccc2C2CCNCC2)cn1,inhibition,"PRVABC59, Concentration 49.5 uM, Number of replicates 2.0, Standard deviation 0.030577960063138728 %",1.58%
same,inhibition,"PRVABC59, Concentration 99.01 uM, Number of replicates 2.0, Standard deviation 1.7681266341715607 %",3.23%
same,inhibition,"PRVABC59, Concentration 198.0 uM, Number of replicates 2.0, Standard deviation 3.3204086361130085 %",7.24%
O=C(Nc1cnc(Br)c(Cl)n1)c1cc(Cl)ccc1NS(=O)(=O)c1ccc(Oc2ccccc2Cl)cc1,inhibition,[2],20.6%
O=C(O)c1cccc(NC(=O)c2cccc(Br)c2)c1,inhibition,"PRVABC59, Concentration 49.5 uM, Number of replicates 2.0, Standard deviation 2.5009940749301487 %",-0.982%
same,inhibition,"PRVABC59, Concentration 99.01 uM, Number of replicates 2.0, Standard deviation 3.0157213975013266 %",0.926%
same,inhibition,"PRVABC59, Concentration 198.0 uM, Number of replicates 2.0, Standard deviation 3.887437163113113 %",4.65%
COc1nc(Br)cnc1NC(=O)C1CCN(c2ccc(C=O)cc2)CC1,inhibition,[1],20.5%
Cc1cnccc1NC(=O)c1cc(C(C)C)n(C)n1,inhibition,"PRVABC59, Concentration 49.5 uM, Number of replicates 2.0, Standard deviation 2.5246041494100724 %",-0.352%
same,inhibition,"PRVABC59, Concentration 99.01 uM, Number of replicates 2.0, Standard deviation 5.092735709500862 %",2.2%
same,inhibition,"PRVABC59, Concentration 198.0 uM, Number of replicates 2.0, Standard deviation 3.1078747231271233 %",6.2%
CCCCCC(=O)N[C@@H](Cc1ccccc1)C(=O)NCc1cccc(CN)c1,inhibition,"PRVABC59, Concentration 49.5 uM, Number of replicates 2.0, Standard deviation 3.0011927993004544 %",-2.08%
same,inhibition,"PRVABC59, Concentration 99.01 uM, Number of replicates 2.0, Standard deviation 2.83307625931173 %",-0.451%
same,inhibition,"PRVABC59, Concentration 198.0 uM, Number of replicates 2.0, Standard deviation 3.088364441189248 %",0.933%
Cc1ccc([C@H](CCO)NC(=O)c2cc(Cl)ccc2NS(=O)(=O)c2ccc(Oc3ccccc3Cl)cc2)cc1,inhibition,[2],41.8%
CC(C)c1nc(CN(C)C(=O)c2cc(Cl)ccc2NS(=O)(=O)c2ccc(Oc3ccccc3Cl)cc2)cs1,inhibition,[2],27.9%
CN(CCCOc1ccc(Br)cc1)C(=O)c1cc(Cl)ccc1NS(=O)(=O)c1ccc(Oc2ccccc2Cl)cc1,inhibition,[2],12.1%
CC(=O)Nc1ccc(NC(=O)c2cc(Cl)ccc2NS(=O)(=O)c2ccc(Oc3ccccc3Cl)cc2)c(C(F)(F)F)c1,inhibition,[2],23.4%
O=Cc1ccc(N2CCC(C(=O)NCc3c(F)ccc(F)c3F)CC2)cc1,inhibition,[3],24.1%
O=C(c1cc(Cl)ccc1NS(=O)(=O)c1ccc(Oc2ccccc2Cl)cc1)N1CCS[C@H]1c1ccc([N+](=O)[O-])cc1,inhibition,[2],32.3%
O=C(c1cc(Cl)ccc1NS(=O)(=O)c1ccc(Oc2ccccc2Cl)cc1)N1CCCC[C@@H]1Cc1ccccc1,inhibition,[2],19%
O=C(c1cc(Cl)ccc1NS(=O)(=O)c1ccc(Oc2ccccc2Cl)cc1)N1CCN(C2CCCC2)CC1,inhibition,[2],19.7%
O=Cc1ccc(N2CCC(C(=O)Nc3ccc(F)cc3C(F)(F)F)CC2)cc1,inhibition,[1],23.6%
CCOc1ccc(N2CCN(C(=O)C3CCN(c4ccc(C=O)cc4)CC3)CC2)cc1,inhibition,[1],19.3%
CN(Cc1ccc(Cl)c(Cl)c1)C(=O)c1cc(Cl)ccc1NS(=O)(=O)c1ccc(Oc2ccccc2Cl)cc1,inhibition,[2],22.4%
O=Cc1ccc(N2CCC(C(=O)N3CCN(Cc4cc(F)ccc4F)CC3)CC2)cc1,inhibition,[1],23.9%
CCN(Cc1ccc(C(F)(F)F)cc1)C(=O)C1CCN(c2ccc(C=O)cc2)CC1,inhibition,[1],21.5%
